Usually % Inhibition stands for the drop in the measured response relative to a control, in per cent.

This is an account of results in ChEMBL document CHEMBL4888484, “Replenishing the malaria drug discovery pipeline: Screening and hit evaluation of the MMV Hit Generation Library 1 (HGL1) against asexual blood stage Plasmodium falciparum ,using a nano luciferase reporter read-out” (2022).

Among all 150,000 compounds or so, about 540 (0.36%) showed an effect of 50% or more. This is one part of the list.

The subject of the assay is Plasmodium falciparum. The experiment in a line: Primary screen in NF54 nanoGlo assay, in single point, at 2uM, 72h; a lower Z score goes with more inhibition. The settings on record: timepoint 72 hour. It is filed as functional, Erythrocyte.
As for `CS(=O)(=O)N[C@H]1CCCN(C(=O)CCc2ccc(-c3ccccc3)o2)C1`, the “% Inhibition” value is reported as -5% and the Z score worked out at 0.44.
For `O=C(c1ccc(Br)o1)N1CCOC2CCCCC21` (stereo unspecified), the “% Inhibition” value is -13% and the Z score was 1.93.
Regarding `Cc1ccc(Nc2nc(N)nc(Cn3cc(C(F)(F)F)cc(Cl)c3=O)n2)cc1`, the “% Inhibition” value was -16% and the Z score is listed as 2.94.
On to `Cc1ccc(S(=O)(=O)N2C[C@H](F)C[C@@H]2C(=O)N2CCOCC2)cc1Cl`, for which the “% Inhibition” value turned out to be 13% and the Z score is given as -1.71.
Regarding `C[C@@H](COc1ccccc1)NCCc1nnc(N)s1`, the “% Inhibition” value turned out to be 2% and the Z score was -0.31.
Take `Cc1cc(-n2cccn2)ccc1CN(Cc1cccnc1)C[C@@H]1CCC(=O)N1`: the “% Inhibition” value is -4% and the Z score is on record as 0.77.
For the molecule `CCN1C(=O)COc2ccc(-c3csc(NC(=O)[C@@H]4CCCO4)n3)cc21`, the “% Inhibition” value is listed as 37% and the Z score is listed as -0.96.
Turning to `O=c1c2ccccc2nnn1C[C@H]1CC[C@H](C(=O)Nc2nccs2)CC1`, the “% Inhibition” value is recorded as -7% and the Z score stood at 0.88.
On the same counts, the results for `CC(NC1CC2CCCc3cccc1c32)c1cnccn1` (stereo unspecified) are 3% and -0.28.
Take `CC(NC1(C)CCOC1)c1cc2ccccc2o1` (stereo unspecified): the “% Inhibition” value is -7% and the Z score is recorded as 1.11.
On to `O=C(c1cccc(CO)n1)N1CCC2(CC1)c1ccccc1C[C@@H]2O`, for which the “% Inhibition” value was determined as 16% and the Z score is -2.05.
On to `CCCCOCC(=O)N1CCC[C@H](CO)C1`, for which the “% Inhibition” value is on record as -6% and the Z score was determined as 0.76.
On the same counts, the results for `CCS(=O)(=O)NCCNC(=O)c1ccc(Cl)cc1` are -10% and 1.52.
With `CC(C)Oc1ccc2nnc(CCC(=O)N[C@H]3CCS(=O)(=O)C3)n2n1`, the “% Inhibition” value worked out at 2% and the Z score is -0.31.
On the same counts, the results for `COC1CC(CCNC(=O)N2CCC(c3cncn3C)CC2)C1` (stereo unspecified) are -6% and 1.14.
For `CO[C@H]1C[C@H]2CN(C(=O)Nc3ccccc3Cl)[C@@H](C)C(=O)N2C1`, the “% Inhibition” value was determined as 1% and the Z score is -0.16.
Consider `CCOc1ccc(C(=O)N(C)C)cc1N`, for which the “% Inhibition” value is recorded as -9% and the Z score is on record as 1.32.
Take `Cc1nc(CN(C)[C@H]2CCC(=O)N(Cc3cccc(Cl)c3)CC2)cs1`: the “% Inhibition” value is recorded as 2% and the Z score is recorded as -0.28.
On the same counts, the results for `Clc1ccc2nc(N3CC(c4ccccn4)C3)sc2c1` are 5% and -0.74.
Regarding `CC(C)Oc1ccc(-c2noc(Cn3c(=O)n(Cc4ccccc4)c(=O)c4sccc43)n2)cc1`, the “% Inhibition” value is -4% and the Z score is reported as 0.45.
For `Cc1nn(C)c(C)c1CN(C)S(=O)(=O)N1CCCC1`, the “% Inhibition” value is on record as -3% and the Z score amounted to 0.56.
For the molecule `CC(=O)[C@H]1CCN(c2nccc(C(F)(F)F)n2)C1`, the “% Inhibition” value is recorded as -7% and the Z score is on record as 1.4.
Take `Cc1cc(C(=O)Nc2ccc(N3C(=O)CC[C@@H]3C)cc2)cc(C)n1`: the “% Inhibition” value is on record as -1% and the Z score amounted to 0.14.
Regarding `Cc1ccc(-c2cn3c4ccccc4nc3n2CCCNC(C)C)cc1`, the “% Inhibition” value is on record as -5% and the Z score was 0.44.
Consider `CCc1ccccc1S(=O)(=O)N1C2CC[C@@H]1CN(C)CC2`, for which the “% Inhibition” value is listed as -8% and the Z score is recorded as 1.61.
As to `Cn1c([C@@H]2CCCN2c2cc(N3CCCC3)ncn2)nc2c1CCCC2`, the “% Inhibition” value turned out to be 13% and the Z score is reported as -1.69.
Regarding `COc1ccc(F)c(CN2CCC[C@@]3(CCN(c4ncccn4)C3)C2=O)c1`, the “% Inhibition” value is on record as -14% and the Z score was 1.86.
As for `O=C(CC1CCN(C(=O)c2ccc3nc(-c4ccccc4)oc3c2)CC1)NCc1cccc(Cl)c1`, the “% Inhibition” value is -5% and the Z score came to 0.63.
On the same counts, the results for `O=C(CN1CCCC1)NCCCc1ccccc1` are -6% and 1.09.
Consider `Cc1cc(C)c2c(C(=O)NCCc3nnc(N)s3)cc(C)nc2c1`, for which the “% Inhibition” value is recorded as 5% and the Z score is recorded as -0.65.
With `CCCN1C[C@@H](C(=O)NC2CCCC2)CC1=O`, the “% Inhibition” value is -21% and the Z score turned out to be 1.88.
For `CCNc1ccnc(NC2CC(C)(C)N(C)C(C)(C)C2)n1`, the “% Inhibition” value is 8% and the Z score is -1.02.
On the same counts, the results for `Nc1nccnc1C(=O)Nc1cccc(N2C(=O)CNC2=O)c1` are -4% and 0.47.
For the molecule `Cc1ccccc1S(=O)(=O)Nc1cnc(N2CCC(C)CC2)c(C(=O)O)c1`, the “% Inhibition” value was 9% and the Z score was -0.85.
For `C=C(C)CN(CC)C(=O)C(=O)Nc1ccc2c(c1)N(C)CC2`, the “% Inhibition” value is given as -14% and the Z score is 1.93.
Consider `CC(C)c1nnsc1C(=O)NC(c1cccs1)[C@H]1C[C@@H](O)C1` (stereo partly specified), for which the “% Inhibition” value is recorded as -5% and the Z score amounted to 0.63.
Turning to `Cc1cc(C(=O)NC2CCN(C(=O)c3cnc4ccc(F)cc4c3)CC2)c(C)o1`, the “% Inhibition” value is -14% and the Z score was found to be 1.47.
Regarding `Cc1ccc2oc(-c3cc4c(cc3Br)OCO4)nc2c1`, the “% Inhibition” value is -23% and the Z score was found to be 2.
Turning to `CCC1CN(C(=O)c2nc(C)ncc2Cl)CC1N(C)C` (stereo unspecified), the “% Inhibition” value was -11% and the Z score turned out to be 1.5.
For the molecule `CCn1cnc2c(N3CC4CN(c5ccccc5)CC4C3)ncnc21` (stereo unspecified), the “% Inhibition” value was 35% and the Z score is given as -3.97.
Turning to `NS(=O)(=O)N1CCCN(c2ncnc3cc(Cl)ccc23)CC1`, the “% Inhibition” value was -3% and the Z score stood at 0.33.
As for `COc1ccccc1CNC(=O)CC1CCN(C)CC1`, the “% Inhibition” value is reported as -7% and the Z score was 1.
With `C[C@]1(C(=O)NCC(=O)N2CCCC2)CC1(Cl)Cl`, the “% Inhibition” value is listed as -8% and the Z score is 1.09.
